In all, about 50,000 compounds went through this assay and about 800 (1.6%) showed an effect of 50% or more. This is one part of the list.
molecular target: Bcl-2-like protein 10 (Homo sapiens) (UniProt Q9HD36); experiment: TR3 peptide-Bcl-B binding displacers, biochemical primary FP assay, phenotype converters (AID 1240); conditions: GST-Bcl-B / FITC-TR3 peptide fluorescence polarization; stronger effect = higher value; compound at 3.75 mg/L;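 further: 0% = Bcl-B with tracer peptide and DMSO and 100% = tracer peptide lacking Bcl-B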
UniProt Q9HD36, sequence (Q9HD36 whole entry, looked up): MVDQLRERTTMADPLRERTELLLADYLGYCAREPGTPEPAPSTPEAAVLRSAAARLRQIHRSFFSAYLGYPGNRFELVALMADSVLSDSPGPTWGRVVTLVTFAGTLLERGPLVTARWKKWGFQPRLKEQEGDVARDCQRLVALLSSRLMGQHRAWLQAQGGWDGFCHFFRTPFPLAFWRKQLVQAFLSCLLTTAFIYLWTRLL

Row | SMILES | displacement [%]
1 | COC(=O)C1=C(C)N=C2SCCC(=O)N2C1c1cccs1 (stereo not given) | -5.1
2 | O=C1c2ccccc2NC(c2ccc(Br)cc2)N1Cc1ccco1 (stereo not given) | 10.1
3 | O=[N+]([O-])c1cccc(N/N=C/c2ccc(O)cc2O)c1 | -10
4 | O=C(Nc1ccc2oc(-c3cccc4c(Br)cccc34)nc2c1)c1ccccc1[N+](=O)[O-] | 10.3
5 | O=S(=O)(Nc1ccnc2ccccc12)c1ccccc1 | 13.1
6 | COCCN1C(=O)C(=O)/C(=C(/O)c2ccccc2)C1c1ccccc1OC (stereo not given) | 6.3
7 | NS(=O)(=O)c1ccc(NC(=S)NC(=O)c2ccccc2)cc1 | 9.3
8 | CC1CCc2c(sc(NC(=O)c3ccccc3Br)c2C(=O)OC(C)C)C1 (stereo not given) | -5.9
9 | c1ccc(CN2C3=NCCN3c3ccccc32)cc1 | -5.7
10 | O=C(CCc1ccccc1)Nc1cccc(Br)c1 | -8.2
11 | CCOc1ccc(/C=C(/C#N)C(=O)Nc2cccc(Br)c2)cc1 | 1.6
12 | O=C(NC(CO)(CO)CO)c1cccc(-c2ccc(O)cc2)c1 | 13.2
13 | c1ccc(-c2nc(NC3CCCCC3)cc(-n3cccn3)n2)cc1 | -8.4
14 | CC1CCc2c(sc(NC(=O)c3ccccc3Cl)c2C(=O)Nc2ccccc2Cl)C1 (stereo not given) | -4.1
15 | O=C(COc1ccccc1)Nc1ccc(-c2nc3ncccc3o2)cc1 | 35.8
16 | O=C1C2C3C=CC(C3)C2C(=O)N1/N=C/c1ccc(-c2ccc(Cl)c([N+](=O)[O-])c2)o1 (stereo not given) | 6.3
17 | CS(=O)(=O)N(Cc1ccccc1)c1ccc(C(=O)Nc2ccc3c(c2)OCO3)cc1 | 6.3
18 | Cc1ccc(NC(=O)c2cc(F)c(F)cc2Cl)nc1 | -0.6
19 | COc1ccc(-c2noc(-c3cccc(Br)c3)n2)cc1 | 0
20 | C=C(C)Cn1c(SCC(=O)O)nnc1-c1ccc([N+](=O)[O-])cc1 | -10.9
21 | O=C(Nc1c(-c2ccccc2)c2cc(Br)ccc2[nH]c1=O)c1cccc(Cl)c1 | 1.7
22 | c1cnc2cc3c(cc2n1)Nc1nonc1N3 | 0.9

Row | SMILES | displacement [%]
23 | Cc1n[nH]c(C)c1Sc1ccccc1N=Cc1cccc(Cl)c1 | -7.6
24 | COc1cc(CN=Cc2c(O)n(-c3ccccc3Cl)c(=O)[nH]c2=O)cc(OC)c1 | 3.2
25 | CCOc1cc(OCC)cc(C(=O)Nc2cccc(OC)c2)c1 | 8.5
26 | Cc1cccc(OC(=O)c2cccc([N+](=O)[O-])c2)c1 | -2.3
27 | CCn1c2ccccc2c2cc(C=Nc3ccc(OC(F)(F)F)cc3)ccc21 | 5.5
28 | Cc1ccc(N2C(=O)/C(=C/c3cc(C)n(C)c3C)C(=O)NC2=S)cc1 | 97
29 | COc1cccc(C2/C(=C(\O)c3ccc(Br)cc3)C(=O)C(=O)N2c2ccccc2)c1 (stereo not given) | -7.2
30 | Cc1cc(C)cc(N2C(=O)NC(=O)/C(=C\c3ccc(N(C)C)o3)C2=O)c1 | -29.4
31 | CCN(CC)CCCOc1cccc(Cl)c1 | 6.9
32 | Cc1[nH]n(-c2ccc(Cl)cc2)c(=O)c1C=Nc1ccc(S(=O)(=O)N2CCOCC2)cc1 | -0.9
33 | Cc1ccc(-c2nc3ccccc3o2)cc1NC(=O)COc1ccccc1[N+](=O)[O-] | -7.1
34 | O=C1CCCC2=C1C(c1cccc([N+](=O)[O-])c1)C1C(=O)c3ccccc3C1=N2 (stereo not given) | -7.7
35 | CCN(CC)S(=O)(=O)c1cc(C(=O)NCc2ccccc2)ccc1Cl | -10.4
36 | COc1cc(NC(=O)c2cc(-c3cc(C)ccc3C)nc3ccccc23)c(OC)cc1Cl | 18
37 | CSCCNC(=O)c1ccc(C(C)(C)C)cc1 | -1
38 | S=c1n(CN2CCOCC2)nnn1-c1ccccc1 | -5.3
39 | Cc1ccc(S(=O)(=O)N/N=C/c2sccc2C)cc1 | -0.4
40 | COc1cccc(C(=O)Nc2ccccc2C(F)(F)F)c1 | 3.9
41 | Cc1cccc(N2CCN(S(=O)(=O)c3ccc(F)cc3)CC2)c1C | -2.1
42 | CC(=O)NC(c1ccc2c(c1)OCO2)c1ccc2cccnc2c1O (stereo not given) | -12.8
43 | COc1ccc(NC(=O)CN(c2ccc(C)cc2)S(C)(=O)=O)c(OC)c1 | 13.3
44 | COc1ccc(S(=O)(=O)N(CC(=O)Nc2cccc(Cl)c2C)c2cc(C)cc(C)c2)cc1OC | -3.4

Row | SMILES | displacement [%]
45 | O=S(=O)(c1ccc2ccccc2c1)n1nnc2ccccc21 | 10
46 | O=C(C(Sc1ccccc1)c1ccccc1)N1CCN(c2ccc(F)cc2)CC1 (stereo not given) | 7.1
47 | Cc1ccc2[nH]c(C(=O)N/N=C/c3ccc(O)cc3O)c(-c3ccccc3)c2c1 | 24.1
48 | CC(C)(C)N1C(=O)c2ccc(C(=O)Nc3ccc(I)cc3C(=O)O)cc2C1=O | -4
49 | O=C(/C=C/c1ccc([N+](=O)[O-])cc1)NCCSCc1ccccc1Cl | -11.8
50 | CC1(C)CC(=O)C(C2COC3=C2C(=O)CC(C)(C)C3)C(=O)C1 (stereo not given) | -0.8
51 | Cc1cc(OCC(=O)Nc2ccc(-c3nc4ncccc4o3)cc2)ccc1Cl | 27.1
52 | Cc1cccc(C(=O)N2N=C3CCCCCC3C2(O)C(F)(F)F)c1O (stereo not given) | 15.1
53 | CC1(C)Oc2ccc3ccc(=O)oc3c2/C(=N\O)C1=O | 6
54 | CCOC(=O)c1c(N)sc(C(=O)Nc2ccccc2C(F)(F)F)c1C | -0.3
55 | Cc1cc(C)cc(NC(=O)c2c(C)nc3ccccn23)c1 | -3.9
56 | COC(=O)c1ccccc1NC(=O)c1oc2ccc(C)cc2c1C | 4.6
57 | C(#Cc1ccc2noc(-c3ccccc3)c2c1)c1ccccc1 | 44.1
58 | CCOC(=O)C1=C(C)N=c2s/c(=C/c3ccc(F)cc3)c(=O)n2C1c1cccc([N+](=O)[O-])c1 (stereo not given) | 7.1
59 | NC(=O)c1cc(NC(=O)c2cccs2)c(Cl)cc1Cl | 3.2
60 | Cc1cc(C)c2[nH]c(O)c(N=NC(=O)c3cccc([N+](=O)[O-])c3)c2c1 | -0.6
61 | CC(=O)N1CCN(c2ccc(NC(=O)c3ccccc3Cl)cc2)CC1 | 17.4
62 | Cc1cccc(NC(=O)C2COc3ccccc3O2)c1 (stereo not given) | -5.9
63 | COC(=O)C(C)Oc1ccc2ccc(=O)oc2c1 (stereo not given) | 26.4
64 | CNc1nc(-c2ccccc2O)nc(-c2ccccc2O)n1 | -9.2
65 | CCOc1ccc2nc(SCC(=O)Nc3cccc(C)c3)sc2c1 | 6.5
66 | CC1=C(C(=O)Nc2ccc(C)cc2)C(c2ccc(C(C)C)cc2)NC(=S)N1 (stereo not given) | 8.7

Row | SMILES | displacement [%]
67 | O=C(CCCN1C(=O)/C(=C/c2ccccc2)SC1=S)Nc1nccs1 | 11.2
68 | O=C(NC(=S)Nc1ccc([N+](=O)[O-])cc1O)c1ccc(Br)cc1 | 6.1
69 | O=c1[nH]c(/C=C/c2ccc(O)cc2)nc2ccccc12 | 16.2
70 | COCCNCC(=O)NCC12CC3CC(CC(C3)C1)C2 | -14.7
71 | CCOC(=O)c1ccccc1NC(=O)COc1ccccc1 | 3.4
72 | CCCCCOC(=O)CCCN1C(=O)S/C(=C/c2ccc(OC)cc2)C1=S | -2.2
73 | CCOC(=O)CONC(=NCc1ccccc1)c1nonc1N | 3.6
74 | O=[N+]([O-])c1ccc(-c2nnc(-c3ccc(Br)o3)o2)cc1 | 9.5
75 | O=[N+]([O-])c1ccc(-c2ncccc2O)cc1 | 11.9
76 | O=C(c1ccccc1)c1cccc(NC(=O)C2CCCCC2)c1 | -0.3
77 | Cc1cccc(-n2c(C)cc(/C=N/NC(N)=O)c2C)c1 | -3
78 | O=C(Nc1ccc(N2CCOCC2)cc1)c1ccccc1Cl | 7.2
79 | CC1=C(C(=O)OCCc2ccccc2)C(c2cccs2)NC(=O)N1 (stereo not given) | 12.3
80 | O=C1c2ccccc2C(=O)N1CCCc1nc2ccccc2c(=O)n1-c1ccncc1 | 4.7
81 | COc1cc(C2NC(=S)NC(C)=C2C(=O)Nc2ccccc2)cc(OC)c1OC (stereo not given) | 8.6
82 | COc1ccc(Cl)cc1NC(=O)C1=C(C)NC(=O)NC1c1ccccc1F (stereo not given) | 5.8
83 | O=C1/C(=C\c2cccc([N+](=O)[O-])c2O)SC(=S)N1c1ccccc1 | 1.8
84 | CN1C(=O)/C(=C/c2cc(Br)c(Br)o2)SC1=S | 17.3
85 | Cc1cc(/C=N/NC(=O)Cn2c3ccccc3c(=O)c3ccccc32)c(C)n1-c1ccccc1 | -11.8
86 | CC(=O)Oc1cccc(NC(=O)c2cccc(C(=O)Nc3cccc(OC(C)=O)c3)c2)c1 | -0.3
87 | COc1ccc(NC(=O)Cn2nc(C(F)(F)F)c(Cl)c2C)cc1OC | 7.1
88 | Nc1nonc1-n1nnc(CN2CCOCC2)c1CN1CCOCC1 | 4.4

Row | SMILES | displacement [%]
89 | CC(=O)c1ccc(NC(=O)c2cnccn2)cc1 | 37.3
90 | COc1ccccc1-c1cc(C)nc(N)c1C#N | 2.2
91 | Cc1cc(Br)ccc1N1C(=O)/C(=C/c2cc(C)n(C)c2C)C(=O)NC1=S | 3.9
92 | CC(=O)Nc1ccc(S(=O)(=O)Nc2ccc(Nc3ccccc3)cc2)cc1 | -5.9
93 | Cc1ccc(-c2csc(/C(C#N)=C/c3sccc3C)n2)cc1C | 11.7
94 | COCCOC(=O)c1ccc(NC(=O)C2COc3ccccc3O2)cc1 (stereo not given) | -1.9
95 | C/C(=N/NC(=O)CNc1ccccc1C)c1ccc(Br)cc1 | -5.5
96 | COc1ccccc1C(=O)NC1CC(C)(C)NC(C)(C)C1 | -11.3
97 | O=c1cc(-c2ccc([N+](=O)[O-])cc2)nc2cc(-c3cccs3)[nH]n12 | 49.7
98 | CCn1c(C)nc2c(I)c(O)ccc21 | 2.8
99 | Cc1cc(C)nc(/N=C(/N)Nc2ccccc2C(F)(F)F)n1 | 4.8
100 | CCOc1ccc2nc(NC(=O)c3ccccc3-c3ccccc3C(=O)O)sc2c1 | -12.3
101 | O=C(COc1ccc(Cl)cc1)NNC(=O)Cc1ccc([N+](=O)[O-])cc1 | -11.3
102 | Cc1nn(-c2ccccn2)c(C)c1Oc1ccccc1O | -7.2
103 | CN(C)Cn1c(O)c(N=NC(=O)c2cccnc2)c2ccccc21 | -5.2
104 | CCCCOC(=O)c1ccc(NC(=S)NC(NC(C)=O)C(Cl)(Cl)Cl)cc1 (stereo not given) | -10.6
105 | CCC1=NN(C(=O)Cc2ccc([N+](=O)[O-])cc2)C(O)(C(F)(F)F)C1 (stereo not given) | 6.6
106 | COc1ccc(CN2CCN(Cc3ccncc3)CC2)cc1Br | 0.4
107 | COc1ccc(C2=C/C(=C/c3cccs3)C(=O)O2)cc1 | 7.8
108 | CCOC(=O)/C=C/COc1ccc2oc(-c3ccccc3)c(C(=O)OCC)c2c1 | 8.8
109 | Cc1cccc(NC(=O)C(=O)NCCCO)c1C | 4.2
110 | O=C(O)c1ccccc1C(=O)c1ccc(Cl)c(N2C(=O)C=CC2=O)c1 | 2.6

Reference: PubChem BioAssay AID1240 (Sanford-Burnham Center for Chemical Genomics, 2008)
